In all, about 220,000 compounds went through this assay and about 5,700 (2.6%) were called active. The shares of active, inactive and inconclusive entries below differ from those in the screen. Calls come from the whole dose curve; as a rule, active = well fitted inhibition curve with a large enough effect; inconclusive = small, poorly fitted or top-dose-only effect; inactive = no such curve, though single readings can be large or run the other way. Where the call is inconclusive, the potency comes from a doubtful curve fit.
Target: Lysine-specific demethylase 5B (Homo sapiens) (UniProt Q9UGL1)
Test: Primary screen for KDM5B Histone Demethylases FDH-coupled qHTS; note: nearly all actives have a fitted effect of over 70% in size; for activity change, negative = inhibition: 0% is about no effect
Details: FDH-coupled NADH fluorescence (FDH is formaldehyde dehydrogenase); activity change, negative = inhibition: at 57.7 µM (top of the series) unless noted
In short: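 Inhibition is measured as reduced NADH fluorescence generation from FDH coupling to formaldehyde release. Truncated KDM5BΔAP at 200 nM final acts on H3K4me3 peptide (12.5 µM in substrate mix) in pH 7.5 HEPES buffer with Tween-20, 30 min, room temperature.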
Potency is the fitted concentration of half-maximal effect; tags give direction and shape of the fitted curve.

UniProt Q9UGL1, sequence (Q9UGL1 whole entry, looked up): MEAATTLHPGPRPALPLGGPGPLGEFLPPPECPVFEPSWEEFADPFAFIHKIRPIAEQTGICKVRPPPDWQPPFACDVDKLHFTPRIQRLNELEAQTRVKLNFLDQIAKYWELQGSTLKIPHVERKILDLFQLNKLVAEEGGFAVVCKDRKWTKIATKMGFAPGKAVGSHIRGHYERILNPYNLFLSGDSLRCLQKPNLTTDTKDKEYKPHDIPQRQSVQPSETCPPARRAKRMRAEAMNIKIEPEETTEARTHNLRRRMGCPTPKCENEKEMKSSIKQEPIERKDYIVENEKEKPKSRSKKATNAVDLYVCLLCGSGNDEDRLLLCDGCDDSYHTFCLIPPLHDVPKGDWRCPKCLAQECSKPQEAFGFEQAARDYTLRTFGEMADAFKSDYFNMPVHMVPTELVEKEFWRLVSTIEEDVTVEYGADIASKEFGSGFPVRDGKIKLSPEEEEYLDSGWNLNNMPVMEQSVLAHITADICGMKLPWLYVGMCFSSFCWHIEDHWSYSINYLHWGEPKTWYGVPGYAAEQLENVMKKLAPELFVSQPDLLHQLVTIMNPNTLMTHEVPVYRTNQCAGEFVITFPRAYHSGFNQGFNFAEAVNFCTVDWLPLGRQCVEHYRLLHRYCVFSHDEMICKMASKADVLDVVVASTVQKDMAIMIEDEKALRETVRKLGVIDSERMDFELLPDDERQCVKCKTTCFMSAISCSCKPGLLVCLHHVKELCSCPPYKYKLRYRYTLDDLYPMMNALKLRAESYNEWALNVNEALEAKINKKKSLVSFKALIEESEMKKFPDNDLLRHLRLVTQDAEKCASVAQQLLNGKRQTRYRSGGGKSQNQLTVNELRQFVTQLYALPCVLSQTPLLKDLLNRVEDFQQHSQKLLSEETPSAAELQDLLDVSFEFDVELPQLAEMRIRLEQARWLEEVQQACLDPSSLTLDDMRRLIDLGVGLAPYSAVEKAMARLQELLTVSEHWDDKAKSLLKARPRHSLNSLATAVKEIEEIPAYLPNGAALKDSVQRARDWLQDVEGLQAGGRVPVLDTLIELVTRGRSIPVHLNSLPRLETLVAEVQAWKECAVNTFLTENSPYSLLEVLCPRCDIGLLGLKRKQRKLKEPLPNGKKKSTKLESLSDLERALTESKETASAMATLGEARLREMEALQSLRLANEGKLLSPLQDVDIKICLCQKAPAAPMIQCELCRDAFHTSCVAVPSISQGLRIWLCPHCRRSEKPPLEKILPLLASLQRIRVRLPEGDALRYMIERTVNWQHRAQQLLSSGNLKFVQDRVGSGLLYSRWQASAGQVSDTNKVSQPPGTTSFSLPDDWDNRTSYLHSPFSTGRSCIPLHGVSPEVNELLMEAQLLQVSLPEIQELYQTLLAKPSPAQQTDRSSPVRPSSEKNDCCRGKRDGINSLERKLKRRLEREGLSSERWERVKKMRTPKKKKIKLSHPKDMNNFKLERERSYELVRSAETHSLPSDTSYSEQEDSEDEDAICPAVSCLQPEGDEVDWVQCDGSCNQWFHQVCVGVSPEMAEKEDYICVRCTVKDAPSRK

| Structure (SMILES) | Potency | activity change, negative = inhibition |
| --- | --- | --- |
| C=CCn1cc2c3c(cccc31)[C@H](CC(C)C)N[C@H](C(=O)NCCC)C2 | inconclusive: 56.2 µM [inhibitor, single point] |  |
| CCOc1ccc(-c2nc(C#N)c(NCCCN(C)C)o2)cc1 | inconclusive: 1.78 µM [inhibitor, partial curve, poor fit] |  |
| Cc1ccc2c(n1)N(C)[C@H](CO)CCN(Cc1cn(C)c3ccccc13)C2 | inconclusive: 39.8 µM [inhibitor, partial curve, poor fit] |  |
| CC1=C(C(=O)Nc2ccccc2)C(c2ccccc2Cl)N2C(=O)CSC2=N1 (centres undefined) | inactive |  |
| CN(C)c1ccc(CN2CCC[C@H]2c2nc(-c3ccnc(N4CCC(C(N)=O)CC4)c3)no2)cc1 | inconclusive: 31.6 µM [inhibitor, single point] |  |
| Cc1noc([C@@H]2CC(F)(F)CN2C(=O)c2cc(C)oc2C)n1 | inconclusive: 15.8 µM [inhibitor, single point] |  |
| CN(CCCNC(=O)c1ccncc1)CC(F)(F)F | inactive |  |
| O=C(Nc1cccc(Cl)c1)c1csnn1 | inconclusive: 1.41 µM [inhibitor, full curve, poor fit] |  |
| O=C(Nc1ccc2c(c1)OCO2)c1oc2ccccc2c1COc1ccccc1 | inconclusive: 28.2 µM [inhibitor, single point] |  |
| CCCNc1c(NC(=O)Nc2cc(C)cc(C)c2)c(=O)oc2ccccc12 | inactive |  |
| COc1cccc(NS(=O)(=O)c2ccc3[nH]cc(C(=O)N(C)C4CCCCC4)c(=O)c3c2)c1 |  | inconclusive: -39.9% [inhibitor] |
| CCOC(=O)c1ccc2ncc(C(=O)OCC)c(NCCCOC(=O)c3ccccc3)c2c1 | inconclusive: 39.8 µM [inhibitor, single point] |  |
| O=C(CN1CCN(C(=O)c2c(F)cccc2F)CC1)Nc1ccccc1C(F)(F)F | inconclusive: 2.24 µM [inhibitor, full curve, poor fit] |  |
| CCNC(=O)NCC1Cn2cccc2CN1C (centres undefined) | active: 22.4 µM |  |
| C=CCNC(=O)N[C@H]1[C@H](O)[C@@H](Sc2ccccc2)[C@@H]2OC[C@H]1O2 | inactive |  |
| CC1=CCC2C(C)(C)CCCC2(C)C1CC/C(C)=C/CC/C(C)=N/NC(N)=O (centres undefined) | inactive |  |
| CCOC(=O)c1cccc(Nc2ccc3cc(S(=O)(=O)N4CCCCC4)ccc3n2)c1 | inconclusive: 28.2 µM [inhibitor, partial curve, poor fit] |  |
| Cc1cnc(C)c(N2CCN(C(=O)C3CCC(=O)N(CCc4cccc(F)c4)C3)CC2)n1 (centres undefined) | inactive |  |
| CCCCc1nnc2sc(-c3ccc(OCC)c(OCC)c3)nn12 | inactive |  |
